# The other results are listed elsewhere or left out. The energies were worked out here from pooled read counts, against the library average; single values are noisy.
# Biological target: T1, Pho4 (S. cerevisiae) (UniProt P07270)
# T1 sequence: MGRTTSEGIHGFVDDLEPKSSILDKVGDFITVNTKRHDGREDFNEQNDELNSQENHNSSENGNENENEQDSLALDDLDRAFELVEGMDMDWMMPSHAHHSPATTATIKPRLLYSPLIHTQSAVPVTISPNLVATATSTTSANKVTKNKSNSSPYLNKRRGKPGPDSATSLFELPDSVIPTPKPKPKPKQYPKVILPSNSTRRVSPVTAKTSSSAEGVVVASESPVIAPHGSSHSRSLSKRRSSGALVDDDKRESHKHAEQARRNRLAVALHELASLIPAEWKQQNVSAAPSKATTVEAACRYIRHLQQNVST
# Experiment: relative binding free energy (BET-seq); higher = weaker binding
# Conditions: reference: library average
row,Sequence,relative binding free energy [kcal/mol]
1,ATAGTCACGTGCGGAT,0.03
2,TACAACACGTGAGGGT,0.25
3,CGTCGCACGTGTAGGG,-0.11
4,TGGTGCACGTGAATTA,0.38
5,TTCTGCACGTGTGGGT,0.06
6,GGGTTCACGTGTACAT,0.18
7,TCAGTCACGTGGAGTT,0
8,GCGGACACGTGGGTGG,-0.1
9,GTGATCACGTGTGGCT,0.17
10,GACGTCACGTGGAGAT,0.21
11,TGGGGCACGTGTTGCG,0.04
12,CGGGACACGTGGGGTC,-0.13
13,TCATACACGTGTGTTG,-0.06
14,CGCTGCACGTGAGTGG,0.05
15,GGGGCCACGTGCCGGG,-0.31
16,ACGTTCACGTGGTTAT,0.26
17,ATGACCACGTGTTGGT,-0.14
18,TATTGCACGTGCTGAG,-0.12
19,GTGGACACGTGGGAGC,-0.11
20,AGTTCCACGTGGTCGG,0
21,AAGAGCACGTGTTTTG,-0.07
22,GGGGACACGTGGCGAT,-0.08
23,TTATTCACGTGGTTAC,0.17

row,Sequence,relative binding free energy [kcal/mol]
1,GTTAGCACGTGGGTGT,-0.11
2,GAGTGCACGTGAGCGT,0.19
3,ATGTGCACGTGGGATA,-0.13
4,CATGGCACGTGTCGTG,-0.15
5,CGTCGCACGTGAAGGG,0.18
6,GCGGACACGTGGGGAT,0
7,GATTTCACGTGGATTG,0.31
8,TATCACACGTGGGTAT,-0.01
9,TGATGCACGTGTATAG,0.05
10,TTGGGCACGTGATGTC,0.01
11,TGTTACACGTGGTGGC,0.16
12,GGCGGCACGTGTGGTC,0.12
13,TGGGGCACGTGTCGTT,-0.04
14,TATGCCACGTGGGTGG,-0.25
15,GTGGACACGTGCGTTG,-0.02
16,GGTTCCACGTGGAGGT,0.08
17,AGCGTCACGTGTGGCG,0.1
18,AAACGCACGTGGTTGG,-0.21
19,GGACTCACGTGGGCGT,0.01
20,GGTCACACGTGTAGTG,0.13
21,GTAGTCACGTGTATAG,0.12
22,GGCGACACGTGGTTGT,0.02
23,ACGTTCACGTGTTGCA,0.33

row,Sequence,relative binding free energy [kcal/mol]
1,TGCGTCACGTGTTCTG,0.11
2,GTTGACACGTGGACGT,0.05
3,ATAGGCACGTGTGACG,-0.03
4,GTATGCACGTGAGTGC,0.2
5,AATTACACGTGGTATG,-0.01
6,CTGGACACGTGGGTCG,-0.22
7,TGAGTCACGTGGGTCA,-0.11
8,CGATTCACGTGGGTGT,0.17
9,TCGTGCACGTGTAGAG,0.09
10,AAGTACACGTGTGTCT,0.13
11,TTGTTCACGTGAAGTT,0.42
12,TTTTCCACGTGTTGGA,0.11
13,GGGGGCACGTGGAATA,-0.04
14,GTCAGCACGTGAGAGG,0.26
15,ATAGTCACGTGGTAAA,-0.02
16,GCGCGCACGTGGGGAT,-0.11
17,CGGGCCACGTGAGGTT,0.24
18,AAGTGCACGTGTATTA,-0.02
19,TGTCGCACGTGGTGTA,0.01
20,CTTCACACGTGGTGGG,0.06
21,TTTCGCACGTGTGTGT,-0.11
22,GTATGCACGTGCGGGG,-0.09
23,TTGGTCACGTGCGTTG,0.14

row,Sequence,relative binding free energy [kcal/mol]
1,TTTGTCACGTGTCGAT,0.08
2,AGTCTCACGTGGTAGT,0.15
3,GGTTTCACGTGAAATT,0.39
4,AGTCGCACGTGATTGG,0.08
5,ATGAACACGTGGTAGG,-0.11
6,TGGTCCACGTGGAGTG,-0.06
7,CAGGTCACGTGGTGGT,0.04
8,TTTCGCACGTGTATTG,-0.11
9,AGTACCACGTGGTAGT,-0.23
10,TATTACACGTGGTGAT,0.04
11,TCTGGCACGTGTTGGC,-0.04
12,TCGTGCACGTGAAGAG,0.35
13,TGTGTCACGTGATTTT,0.24
14,TTAAACACGTGTTCGT,-0.09
15,GCTCGCACGTGGTATG,-0.07
16,TGATCCACGTGTGATG,0
17,GTTCGCACGTGTGCGC,0.15
18,GTTGACACGTGTCGTT,-0.09
19,CGCGGCACGTGGGGGT,-0.21
20,CCGGACACGTGTGGGG,0.07
21,GGTTTCACGTGATTTA,0.4
22,TTCATCACGTGTGTGT,0.03
23,TTTAACACGTGAGAGG,0.32

row,Sequence,relative binding free energy [kcal/mol]
1,CGGTGCACGTGGTGAC,-0.13
2,CGGTACACGTGCGGGG,-0.05
3,TTTCTCACGTGAGTTA,0.37
4,TTTTTCACGTGCTCTT,0.38
5,TGTTGCACGTGGTGCA,-0.14
6,GGTGGCACGTGAGAAG,0.21
7,GTTTGCACGTGCTGGA,0.02
8,GTCGTCACGTGCAGGG,0
9,AAAAGCACGTGTGTGA,-0.01
10,TTACTCACGTGTTTAA,0.24
11,GAAGGCACGTGGTGAT,-0.16
12,CTGTTCACGTGCAGTT,0.23
13,AGACTCACGTGTATTT,0.24
14,ATGTACACGTGTGTTG,-0.04
15,GGTCGCACGTGTACGT,0.22
16,AATGGCACGTGGGCGC,-0.16
17,TCTGACACGTGAGGTG,0.33
18,ACTTCCACGTGTGGGG,0.18
19,GGGGTCACGTGTTCTG,0.13
20,GAGTTCACGTGCGAGG,0.33
21,TGGTTCACGTGACTAG,0.3
22,TATGACACGTGGTTTG,-0.07
23,TGTAACACGTGGGAAA,0.07

# From the BET-seq Pho4 binding data (Le et al. 2018)
